# Measurements taken from patent publication US6706740B2, “Fungicidal heterocyclic aromatic amides and their compositions, methods of use and preparation” (Dow AgroSciences LLC, priority 1999, dated 2004).
# System: Plasmopara viticola—PLASVI
# Assay: whole plant or invertebrate
# Assay type: in vivo
# Settings: Plasmopara, 24 h, read-out: PLASVI in vivo 1 Day Protectant, 100 ppm, 24 hour protectant, grape; control of fungal infection vs untreated plants
row,Structure (SMILES),pest or weed control at 100 ppm [%]
1,COc1ccnc(C(=O)NC2CC(C)(C)C(=O)C(C)(C)C2)c1O [Compound 266],< 25
2,COc1ccnc(C(=O)NC2CCN(C(=O)CCc3ccccc3)CC2)c1O [Compound 309],< 25
3,COc1ccnc(C(=O)NC2C[C@H](C)O[C@](C)(Cc3ccccc3)C2)c1O (stereo partly shown) [Compound 313],< 25
4,COc1ccnc(C(=O)N[C@H]2C(O)[C@@H]3CC[C@H]2[C@@H]2CCCC[C@@H]23)c1O (stereo partly shown) [Compound 293],< 25
5,COc1ccnc(C(=O)N[C@H]2CO[C@H](C(C)Cc3ccc(C(C)(C)C)cc3)OC2)c1O (stereo partly shown) [Compound 316],25 to 74
6,O=C(Nc1ccc(Cl)cc1)c1ncccc1O [Compound 213],25 to 74
7,COc1ccnc(C(=O)NC2CCN(Cc3cccc(C(F)(F)F)c3)CC2)c1O [Compound 307],< 25
8,COc1ccnc(C(=O)NC2CCC[C@H]3CC(CCC=C(C)C)=CC[C@@H]23)c1O (stereo partly shown) [Compound 286],25 to 74
9,COc1ccnc(C(=O)NC2CC3OC2C(C)C(OC(=O)C(C)C)C3C)c1O (stereo not shown) [Compound 320],< 25

# Same assay, conditions: Plasmopara, 24 h, read-out: PLASVI in vivo 1 Day Protectant, 100 ppm, grape, 24 hour protectant, % control of fungal infection vs untreated plants
row,Structure (SMILES),pest or weed control at 100 ppm [%]
1,COc1ccnc(C(=O)N[C@H]2COC(=O)[C@H](Cc3ccccc3)[C@@H](OC(=O)C(C)C)[C@H](C)OC2=O)c1OC(=O)CCCBr [Compound 625],< 25
2,COc1ccnc(C(=O)N[C@H]2COC(=O)[C@H](Cc3ccccc3)[C@@H](OC(=O)C(C)C)[C@H](C)OC2=O)c1OC(=O)C1CCC1 [Compound 604],25 to 74
3,COCCC(=O)Oc1c(OC)ccnc1C(=O)Nc1ccc(C(=O)Oc2cccc(C(F)(F)F)c2)cc1 [Compound 716],25 to 74
4,COCCC(=O)Oc1c(OC)ccnc1C(=O)Nc1ccc(C(=O)c2cccc(C(F)(F)F)c2)cc1 [Compound 706],25 to 74

# Same assay, conditions: Plasmopara, 24 h, read-out: PLASVI in vivo 1 Day Protectant, 100 ppm, grape, 24 hour protectant; control of fungal infection vs untreated plants
row,Structure (SMILES),pest or weed control at 100 ppm [%]
1,COc1ccnc(C(=O)NC(COC(=O)C(Cc2ccccc2)C(C)O[Si](C)(C)C(C)(C)C)C(=O)OC(C)C)c1O (stereo not shown) [Compound 357],25 to 74
2,COc1ccnc(C(=O)N[C@@H]2OC[C@@H](OCc3ccccc3)[C@H](OCc3ccccc3)[C@H]2OCc2ccccc2)c1O [Compound 332],< 25
3,COc1ccnc(C(=O)NC2O[C@H](CO)[C@H]3OC(C)(C)O[C@@H]23)c1O (stereo partly shown) [Compound 329],< 25
4,COc1ccnc(C(=O)N[C@H]2COC(=O)[C@H](Cc3ccccc3)[C@@H](OC(=O)C3C(C)CCCC3C)[C@H](C)OC2=O)c1O (stereo partly shown) [Compound 393],< 25
5,COc1ccnc(C(=O)Nc2cccc(Oc3ccc(Cl)cc3)c2)c1O [Compound 440],< 25
6,COc1ccnc(C(=O)Nc2cccc(C(=O)Nc3ccc(C(F)(F)F)cc3)c2)c1O [Compound 450],< 25

# Same assay, conditions: Plasmopara, 24 h, read-out: PLASVI in vivo 1 Day Protectant, grape plants, 100 ppm, 24 hour protectant; control of fungal infection vs untreated plants
row,Structure (SMILES),pest or weed control at 100 ppm [%]
1,CSc1nnc(C(=O)NC2CCCCCCC2)c(O)n1 [Compound 546],25 to 74
2,COc1ccnc(C(=O)Nc2ccc(Oc3cc(Cl)nc(C(F)(F)F)c3)cc2)c1O [Compound 467],< 25
3,O=C(NC(Cc1ccccc1)c1ccccc1)c1cccnc1O (stereo not shown) [Compound 519],< 25
4,CC(C)C(=O)O[C@H]1[C@H](C)OC(=O)[C@@H](NC(=O)c2nc3ccccc3cc2O)COC(=O)[C@@H]1Cc1ccccc1 [Compound 562],< 25
5,O=C(Nc1ccccc1Oc1cccc(C(F)(F)F)c1)c1nc(Br)ccc1O [Compound 492],< 25
6,CC1(C)CC(NC(=O)c2nccc(Cl)c2O)CC(C)(C)C1 [Compound 480],< 25
7,CC(NC(=O)c1ccncc1O)c1ccc(Oc2ccccc2)cc1 (stereo not shown) [Compound 512],25 to 74
8,COCCC(=O)Oc1cccnc1C(=O)N[C@H]1COC(=O)[C@H](Cc2ccccc2)[C@@H](OC(=O)C(C)C)[C@H](C)OC1=O [Compound 569],25 to 74
9,O=C(NCc1ccccc1)c1ccncc1O [Compound 506],25 to 74
